Viability index data for 69 compounds are collected here from the supplement of paper PMC4723716.

Molecules are shown by their SMILES. ± gives the uncertainty stated by the source. Over roughly 9,900 compounds, “viability index relative to DMSO control” has its median near 1; the lowest 2% begin near 0.85. The list shows a part of the results.

The test deals with Plasmodium falciparum NF54 stage V gametocytes. The test is described as follows: viability index relative to DMSO control (fraction); higher = less gametocyte killing. Conditions: 2.5 µM, library set: Broad Institute DOS, incubation time: 72 h. In outline: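 Compound at 2.5 µM was incubated for 72 hr at 37°C under low oxygen with P. falciparum NF54 stage V gametocytes (0.75% gametocytemia, 1.25% hematocrit, 10 µl, serum-free screening medium) in 1,536-well plates. Staining used 3 µl of 2.5 µM MitoTracker Red CMXRos plus 0.13% saponin for one to two hours, and red particles of 20–70 µm2 were counted in one imaged field per well. Each viability index is that count relative to the plate mean of solvent-only wells.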
The compound `CN1c2ccc(-c3ccc(F)cc3)cc2[C@H]2[C@H](CCN2C(=O)Cc2cccnc2)[C@H]1CO` displayed a viability index of 1.14 ± 0.081.

For `CCCC(=O)Nc1ccc2c(c1)OC[C@H](C)N(CC1CCOCC1)C[C@H](C)[C@H](OC)CN(C)C2=O`, the viability index was 1 ± 0.089.

As for `CN(C)C(=O)c1cccc(-c2ccc3c(c2)[C@H]2[C@H](CCN2C(=O)c2cnccn2)[C@H](CO)N3)c1`, the viability index turned out to be 1.1 ± 0.035.

Regarding `O=C(C[C@@H]1C[C@H]2c3cc(NC(=O)c4ccc5c(c4)OCO5)ccc3O[C@H]2[C@@H](CO)O1)NCc1ccc(Oc2ccccc2)cc1`, the viability index is 1.147 ± 0.0087.

As to `CN(C)CCCNC(=O)C[C@@H]1CC[C@@H]2[C@H](COC[C@H](O)CN2CC2CC2)O1`, the viability index was found to be 1 ± 0.088.

Consider `COc1ccccc1NC(=O)N1[C@H](CO)[C@@H](c2ccccc2)[C@@H]1C#N`, for which the viability index is 1.056 ± 0.0046.

For `O=C(C[C@H]1C[C@@H]2c3cc(NC(=O)Nc4ccccc4F)ccc3O[C@@H]2[C@H](CO)O1)NCc1ccccn1`, the viability index came to 1.05 ± 0.048.

For `CN1CCN(C(=O)c2cc3c(c(-c4cccc(C5=CCCC5)c4)n2)[C@H](CCO)N([S@@](=O)C(C)(C)C)C3)CC1`, the viability index stood at 0.927 ± 0.032.

In turn, `O=C(NC[C@@H]1N[C@@H](CO)[C@H]1c1ccccc1)c1ccccc1F` displayed a viability index of 0.9305 ± 0.0066.

Compound `Cc1noc(C)c1NC(=O)N[C@H]1C=C[C@@H](CC(=O)Nc2ccc(-c3ccccc3)cc2)O[C@@H]1CO` yielded a viability index of 1.013 ± 0.0059.

Regarding `Cc1noc(C)c1S(=O)(=O)Nc1ccc2c(c1)C(=O)N([C@@H](C)CO)C[C@@H](C)[C@H](CN(C)Cc1ccc(C(=O)O)cc1)OCCCC[C@H](C)O2`, the viability index was 1.17 ± 0.051.

Turning to `O=C(Nc1ccccc1)[C@@H]1[C@@H](CO)[C@@H]2Cn3c(cccc3=O)[C@H]1N2C(=O)c1ccc(F)cc1`, the viability index worked out at 1.04 ± 0.1.

Compound `COc1cccc(C(=O)Nc2ccc3c(c2)OC[C@@H](C)N(CCc2ccccc2)C[C@@H](C)[C@@H](OC)CN(C)C3=O)c1` registered a viability index of 1.08 ± 0.038.

As to `COc1cccc(S(=O)(=O)Nc2ccc3c(c2)[C@H]2C[C@H](CC(=O)NC4CCCCC4)O[C@H](CO)[C@H]2O3)c1`, the viability index was found to be 1.09 ± 0.011.

Consider `CN1C(=O)c2cc(NC(=O)C3CCOCC3)ccc2OC[C@@H]2O[C@@H](CC(=O)NCc3ccccc3F)CC[C@@H]21`, for which the viability index came out at 1 ± 0.069.

Regarding `CN1C(=O)c2cc(NC(=O)c3ccc(C(F)(F)F)cc3)ccc2OC[C@@H]2O[C@H](CC(=O)NCc3ccc4c(c3)OCO4)CC[C@@H]21`, the viability index was found to be 0.979 ± 0.013.

The compound `C[C@@H]1CN([C@H](C)CO)C(=O)CCCn2nncc2CO[C@@H]1CN(C)C(=O)c1ccc2ccn(C)c2c1` returned a viability index of 1.07 ± 0.092.

The compound `CC(C)[C@@H]1COCc2cn(nn2)CCC[C@@H](C)C(=O)N1` came in with a viability index of 1.02 ± 0.03.

`O=C(Nc1nccs1)[C@H]1[C@H](CO)[C@H]2Cn3c(ccc(-c4cncnc4)c3=O)[C@H]2N1CC1CCCC1` displayed a viability index of 1.01 ± 0.13.

`C[C@@H]1CN([C@H](C)CO)C(=O)c2c(c3ccccc3n2C)-c2ccccc2CO[C@H]1CN(C)S(=O)(=O)c1ccc([N+](=O)[O-])cc1`: the viability index was found to be 0.993 ± 0.058.

Turning to `C/C=C/c1ccccc1[C@H]1[C@H](C#N)N(C(=O)c2cccnc2)[C@H]1CO`, the viability index turned out to be 1.035 ± 0.0044.

Regarding `C[C@@H]1CN([C@H](C)CO)C(=O)c2cc(N(C)C)ccc2O[C@H]1CN(C)Cc1ccc(Oc2ccccc2)cc1`, the viability index stood at 0.953 ± 0.069.

For the compound `COc1ccccc1CN1[C@H](CO)[C@H]2c3ccccc3N(C(=O)c3cccnc3)C[C@H]21`, the viability index came out at 1.06 ± 0.084.

`C[C@H]1CN([C@@H](C)CO)C(=O)CCCn2nncc2CO[C@@H]1CN(C)S(=O)(=O)c1ccccc1C#N` yielded a viability index of 1.01 ± 0.019.

Compound `COCC#Cc1ccc([C@H]2[C@@H](CO)N3C(=O)CN(C(=O)CN4CCOCC4)C[C@H]23)cc1` yielded a viability index of 1.03 ± 0.077.

Compound `CO[C@H](CN(C)C(=O)c1cc(Cl)cc(Cl)c1)[C@H](C)CN(C(=O)Nc1ccc(F)cc1)[C@@H](C)CO` came in with a viability index of 1.06 ± 0.053.

`CN1C(=O)c2cc(NC(=O)Nc3ccccc3F)ccc2OC[C@H]2O[C@H](CC(=O)NCCc3ccncc3)CC[C@H]21`: the viability index was determined as 1.08 ± 0.053.

In turn, `O=C(Nc1ccc2c(c1)[C@@H]1C[C@H](CC(=O)N3CCOCC3)O[C@@H](CO)[C@@H]1O2)Nc1ccccc1F` had a viability index of 1.12 ± 0.019.

`O=C(CN1CCOCC1)N[C@@H]1CC[C@@H](CCn2cc(C3CC3)nn2)O[C@H]1CO` came in with a viability index of 1.17 ± 0.12.

`CO[C@H]1CN(C)C(=O)c2cc(NS(=O)(=O)c3ccc(Cl)cc3)ccc2OC[C@@H](C)N(C(=O)NC(C)C)C[C@@H]1C`: the viability index stood at 1.1 ± 0.0095.

Compound `C/C=C/c1ccc2n(c1=O)C[C@@H]1[C@@H](CO)[C@H](C(=O)NCCc3cn(C)cn3)[C@H]2N1C(=O)C1CCC1.C/C=C\c1ccc2n(c1=O)C[C@@H]1[C@@H](CO)[C@H](C(=O)NCCc3cn(C)cn3)[C@H]2N1C(=O)C1CCC1` showed a viability index of 1.05 ± 0.029.

`N#C[C@@H]1[C@@H](c2ccccc2C2=CCCCC2)[C@@H](CO)N1S(=O)(=O)c1ccccc1` returned a viability index of 1.1 ± 0.075.

As to `CN1C(=O)c2cc(NC(=O)c3cccc(C(F)(F)F)c3)ccc2OC[C@H]2O[C@H](CC(=O)NCCN3CCCC3)CC[C@@H]21`, the viability index worked out at 1.028 ± 0.0042.

The compound `N#C[C@@H]1N[C@H](CO)[C@@H]1c1ccc(/C=C/c2ccccc2)cc1` returned a viability index of 1.06 ± 0.078.

Take `CCCNC(=O)Nc1ccc2c(c1)C(=O)N(C)C[C@@H](OC)[C@H](C)CN(C)[C@@H](C)CO2`: the viability index was found to be 1.08 ± 0.12.

Take `O=C(Nc1cc(F)ccc1F)N[C@@H]1CC[C@H](CC(=O)N2CCc3ccccc3C2)O[C@@H]1CO`: the viability index amounted to 1 ± 0.033.

`O=C(Nc1nccs1)[C@H]1[C@H](CO)[C@H]2Cn3c(cccc3=O)[C@@H]1N2C(=O)C1CC1` registered a viability index of 0.933 ± 0.011.

`CC[C@@H]1C/C=C\CCNC(=O)CCC(=O)N1` had a viability index of 1.02 ± 0.02.

Compound `CCC(=O)N1C[C@H](C)[C@@H](OC)CN(C)C(=O)c2ccc(NC(=O)CC(F)(F)F)cc2OC[C@H]1C` registered a viability index of 1.051 ± 0.0091.

`Cc1cc(C(=O)Nc2ccc3c(c2)C(=O)N(C)[C@@H]2CC[C@H](CC(=O)O)O[C@H]2CO3)no1` yielded a viability index of 0.915 ± 0.11.

`COc1ccc2c3c([C@H](CO)N(C[C@]33CCN(C)CC3)C(=O)NC3CCCCC3)n(C)c2c1` came in with a viability index of 0.976 ± 0.091.

In turn, `COc1cccc(CNC(=O)C[C@H]2CC[C@@H]3[C@@H](COc4ccc(NC(=O)c5cccs5)cc4C(=O)N3C)O2)c1` showed a viability index of 0.955 ± 0.13.

In turn, `COc1ccc(NC(=O)N2CC[C@@]3(CC2)CN([C@H](CO)c2[nH]c4cc(OC)ccc4c32)C(=O)c2cccnc2)cc1` gave a viability index of 0.914 ± 0.067.

With `COc1ccc(NC(=O)N2C[C@@H](O)COC[C@H]3O[C@@H](CC(=O)NCc4ccncn4)CC[C@@H]32)cc1`, the viability index worked out at 1.04 ± 0.025.

In turn, `O=C(CC(F)(F)F)N1C[C@H]2[C@@H](c3ccccc31)[C@@H](CO)N2C(=O)c1ccncc1` had a viability index of 1.071 ± 0.008.

As to `CCC(=O)N1CC(=O)N2[C@H](CO)[C@H](c3ccc(C#CCC(C)C)cc3)[C@H]2C1`, the viability index was determined as 0.956 ± 0.046.

As to `CC(C)(C)[S@](=O)N1Cc2cc(C(=O)NC3CCC3)nc(-c3cccc(-c4ccccc4F)c3)c2[C@@H]1CCO`, the viability index was 0.944 ± 0.042.

In turn, `COc1ccccc1CNC(=O)C[C@H]1C[C@@H]2c3cc(NC(=O)C4CCC4)ccc3O[C@@H]2[C@H](CO)O1` showed a viability index of 1.05 ± 0.038.

As to `COc1ccc2c3c([C@@H](CO)N(C[C@]33CCN(CC3)C(=O)Nc3cccc(F)c3)C(=O)CN3CCOCC3)n(C)c2c1`, the viability index was determined as 0.993 ± 0.12.

The compound `CO[C@@H](CN(C)C(=O)C1CCOCC1)[C@@H](C)CN(C(=O)Nc1ccc(C(F)(F)F)cc1)[C@H](C)CO` showed a viability index of 0.998 ± 0.014.

`COCC#Cc1ccc([C@@H]2[C@H](CO)N3CCCCN(C(=O)NC4CCCC4)C[C@@H]23)cc1` returned a viability index of 1.01 ± 0.061.

The compound `COc1cccc(C#Cc2ccc([C@H]3[C@@H](C#N)N(C(=O)c4ccccn4)[C@@H]3CO)cc2)c1` displayed a viability index of 1.098 ± 0.009.

As for `CN1CCN(C(=O)C[C@@H]2C[C@H]3c4cc(NS(C)(=O)=O)ccc4O[C@H]3[C@H](CO)O2)CC1`, the viability index was found to be 0.878 ± 0.27.

The compound `CN1CCN(C(=O)C[C@@H]2CC[C@H]3[C@@H](COC[C@@H](O)CN3CC3CCCCC3)O2)CC1` yielded a viability index of 0.989 ± 0.087.

`CC(C)C#Cc1ccc([C@H]2[C@@H](CO)N3C(=O)CN(S(=O)(=O)c4ccccc4)C[C@H]23)cc1` gave a viability index of 1.04 ± 0.096.

Compound `COc1ccc2c3c([nH]c2c1)[C@@H](CO)N(C[C@]31CCN(CC1)C(=O)Cc1cccnc1)S(=O)(=O)c1ccc(C)cc1` yielded a viability index of 0.827 ± 0.019.

With `O=C(C[C@H]1C[C@@H]2c3cc(NS(=O)(=O)c4ccc(F)cc4)ccc3O[C@@H]2[C@@H](CO)O1)N1CCc2ccccc2C1`, the viability index was 1.118 ± 0.0083.

The compound `COc1cccc(S(=O)(=O)N[C@H]2CC[C@H](CC(=O)NC3Cc4ccccc4C3)O[C@H]2CO)c1` yielded a viability index of 0.905 ± 0.13.

In the case of `C[C@@H]1CCCCO[C@@H](CN(C)C(=O)Nc2ccccc2)[C@@H](C)CN([C@@H](C)CO)C(=O)c2cc(NC(=O)Nc3ccccc3)ccc2O1`, the viability index is 1.11 ± 0.013.

In turn, `CO[C@@H]1CN(C)C(=O)c2cc(NC(=O)NC(C)C)ccc2OC[C@@H](C)N(Cc2ccccc2)C[C@H]1C` returned a viability index of 1.1 ± 0.037.

Consider `C/C=C/c1ccc([C@H]2[C@H]3CNC[C@@H]2N3S(=O)(=O)c2cccc(F)c2)cc1`, for which the viability index is 1.02 ± 0.027.

`CN(C)C(=O)c1cccc(-c2ccc([C@@H]3[C@H]4CNC[C@@H]3N4C(=O)Nc3cccc(Cl)c3)cc2)c1`: the viability index is 1.1 ± 0.059.

With `C[C@@H]1CN([C@@H](C)CO)C(=O)c2c(c3ccccc3n2C)-c2ccccc2CO[C@H]1CN(C)C(=O)NC1CCCCC1`, the viability index worked out at 0.877 ± 0.059.

As for `O=C(Nc1ccc(-c2ccccc2)cc1)[C@H]1[C@H](CO)[C@H]2Cn3c(cccc3=O)[C@H]2N1CC1CCOCC1`, the viability index came out at 1 ± 0.081.

For `CN1CCN(C(=O)c2cc3c(c(-c4cccc(Br)c4)n2)[C@H](CCO)N([S@@](=O)C(C)(C)C)C3)CC1`, the viability index is 1.11 ± 0.077.

`O=C(Nc1ccc(Cl)cc1)N1[C@@H]2CNC[C@H]1[C@H]2c1ccc(-c2ccccc2)cc1` had a viability index of 1.07 ± 0.013.

For the compound `O=S(=O)(c1ccccc1F)N1CC[C@@H]2[C@H](CO)Nc3ccc(C4=CCCCC4)cc3[C@@H]21`, the viability index is 1 ± 0.076.

Regarding `OC[C@@H]1[C@@H](c2ccc(C#Cc3ccccc3F)cc2)[C@@H]2CN(CC3CCOCC3)CCCCN12`, the viability index came out at 1.01 ± 0.072.

Consider `O=C(C[C@@H]1C=C[C@H](NC(=O)Nc2ccccc2F)[C@@H](CO)O1)NCc1ccc(-c2ccccc2)cc1`, for which the viability index was found to be 1.11 ± 0.14.
